{"source": "the supplement of paper PMC3334620", "note": "In all, about 33,000 sequences were measured (“E-score (-0.5 to 0.5)”: median about -0.01, highest 2% from about 0.26 on). The list shows a part of the results."}
{"biological_target": "Ste12 (UniProt P13574)", "test": "PBM E-score (8-mer binding enrichment) (E-score (-0.5 to 0.5)); higher = stronger / more preferred TF binding; most listed sequences are background and not binding sites", "conditions": "protein concentration: 200 nM; construct: GST-DNA-binding domain", "description": "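Universal 'all 10-mer' protein binding microarrays (Agilent AMADID 015681) probed with GST-tagged S. cerevisiae TFs (full-length or DBD) made by in vitro transcription/translation (PURExpress), about 100-200 nM. Bound TF was detected with fluorescent anti-GST. Each ungapped 8-mer (which stands for itself and its reverse complement) is scored by the PBM enrichment score (E-score), a modified Wilcoxon-Mann-Whitney statistic from -0.5 to +0.5, computed with the Universal PBM Analysis Suite. Scale: above 0.35 generally sequence-specific binding.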"}
{"sequence": "TCATGCGA", "PBM E-score": 0.0407}
{"sequence": "CGAGGCAG", "PBM E-score": -0.0653}
{"sequence": "ATTTCAAC", "PBM E-score": 0.161}
{"sequence": "GGAAACTA", "PBM E-score": 0.0625}
{"sequence": "ATTTCGCG", "PBM E-score": 0.126}
{"sequence": "AACTCTGC", "PBM E-score": -0.149}
{"sequence": "AAGTTGGG", "PBM E-score": -0.0163}
{"sequence": "CTCCGAGA", "PBM E-score": 0.0872}
{"sequence": "TACCTCTA", "PBM E-score": -0.00154}
{"sequence": "CAGGGAGA", "PBM E-score": -0.142}
{"sequence": "ACGACGGA", "PBM E-score": -0.0551}
{"sequence": "CGATGTCC", "PBM E-score": 0.0357}
{"sequence": "AAAATGCT", "PBM E-score": 0.0799}
{"sequence": "ATCAGTGA", "PBM E-score": -0.014}
{"sequence": "GGAGTTAA", "PBM E-score": -0.0873}
{"sequence": "CGTGGTCC", "PBM E-score": -0.252}
{"sequence": "CCTATGAC", "PBM E-score": -0.0451}
{"sequence": "AGTTGAGC", "PBM E-score": -0.152}
{"sequence": "AGAAGGTA", "PBM E-score": 0.071}
{"sequence": "AAGTCGAG", "PBM E-score": -0.21}
{"sequence": "CTGGCGAA", "PBM E-score": -0.0468}
{"sequence": "CCACAGGG", "PBM E-score": -0.311}
{"sequence": "CAATCTTC", "PBM E-score": 0.144}
{"sequence": "GAGCTGGA", "PBM E-score": -0.263}
{"sequence": "GCCAACAC", "PBM E-score": -0.0779}
{"sequence": "GTGCAGTA", "PBM E-score": -0.105}
{"sequence": "CACGCCCC", "PBM E-score": -0.053}
{"sequence": "ATACGCAG", "PBM E-score": -0.211}
{"sequence": "ATCACTCC", "PBM E-score": -0.00583}
{"sequence": "ATCTCGTG", "PBM E-score": -0.191}
{"sequence": "ATTCCCCC", "PBM E-score": -0.221}
{"sequence": "TGGTTTAA", "PBM E-score": 0.114}
{"sequence": "GTACCAGA", "PBM E-score": -0.0263}
{"sequence": "CAAATATC", "PBM E-score": 0.202}
{"sequence": "GATAGCTA", "PBM E-score": -0.217}
{"sequence": "CGACTGAC", "PBM E-score": -0.136}
{"sequence": "CCCGTACA", "PBM E-score": -0.173}
{"sequence": "ACGCTTCT", "PBM E-score": -0.0568}
{"sequence": "AACAATGT", "PBM E-score": 0.152}
{"sequence": "ATGGCTTG", "PBM E-score": -0.11}
{"sequence": "ATTTACTG", "PBM E-score": 0.171}
{"sequence": "AACCTGTG", "PBM E-score": -0.0978}
{"sequence": "AATTGGGA", "PBM E-score": 0.217}
{"sequence": "TAACGCTA", "PBM E-score": -0.109}
{"sequence": "AATGCCCC", "PBM E-score": -0.15}
{"sequence": "ACACTAGT", "PBM E-score": 0.0355}
{"sequence": "CGATTCGA", "PBM E-score": 0.222}
{"sequence": "CCGCGCAA", "PBM E-score": -0.128}
{"sequence": "ATATTTTC", "PBM E-score": 0.24}
{"sequence": "AAGGCCTC", "PBM E-score": -0.281}
{"sequence": "ACGCTGTC", "PBM E-score": -0.245}
{"sequence": "CTGCACAC", "PBM E-score": -0.0795}
{"sequence": "ACTCAAGA", "PBM E-score": -0.0306}
{"sequence": "CTGGGCCC", "PBM E-score": -0.193}
{"sequence": "CTACGAGC", "PBM E-score": -0.154}
{"sequence": "CCTAGTCG", "PBM E-score": -0.106}
{"sequence": "GTTTGCAA", "PBM E-score": 0.186}
{"sequence": "AGGTTGTC", "PBM E-score": -0.156}
{"sequence": "CGACGCTC", "PBM E-score": 0.0628}
{"sequence": "ATCTCTGC", "PBM E-score": 0.0868}
{"sequence": "AACGACCG", "PBM E-score": -0.16}
{"sequence": "AGATAGCG", "PBM E-score": -0.064}
{"sequence": "AGTAAATA", "PBM E-score": 0.195}
{"sequence": "CGTACTTA", "PBM E-score": -0.0226}
{"sequence": "CACCACCC", "PBM E-score": -0.109}
{"sequence": "ATGATCTC", "PBM E-score": -0.0488}
{"sequence": "CAACCGCA", "PBM E-score": -0.128}
{"sequence": "CGTGAGTA", "PBM E-score": -0.0256}
{"sequence": "AAGCTCGC", "PBM E-score": -0.002}
{"sequence": "AACTTGGG", "PBM E-score": 0.0515}
{"sequence": "GACCGCCA", "PBM E-score": -0.0164}
{"sequence": "CGAGGTGA", "PBM E-score": 0.217}
{"sequence": "CACTCCCC", "PBM E-score": 0.145}
{"sequence": "CCATGGGG", "PBM E-score": -0.0828}
{"sequence": "GGAATCTA", "PBM E-score": 0.134}
{"sequence": "AAATAGTC", "PBM E-score": -0.0801}
{"sequence": "GAGAAGGC", "PBM E-score": -0.04}
{"sequence": "AGCCAATA", "PBM E-score": -0.138}
{"sequence": "CACTCTGG", "PBM E-score": -0.0849}
{"sequence": "TATGTCCA", "PBM E-score": -0.166}
{"sequence": "GCAGCAAC", "PBM E-score": -0.0291}
{"sequence": "CGGGAGCA", "PBM E-score": -0.159}
{"sequence": "CACTTTGC", "PBM E-score": 0.0517}
{"sequence": "GGTGCAGA", "PBM E-score": -0.0262}
{"sequence": "ATGAACCC", "PBM E-score": 0.019}
{"sequence": "CACCAAAG", "PBM E-score": 0.097}
{"sequence": "CTACCTGA", "PBM E-score": -0.0555}
{"sequence": "CCGTCTTC", "PBM E-score": 0.0624}
{"sequence": "AATTGCCT", "PBM E-score": 0.185}
{"sequence": "AGACCCAT", "PBM E-score": 0.0417}
{"sequence": "ACGGAGAA", "PBM E-score": -0.0374}
{"sequence": "AAGCTAAC", "PBM E-score": -0.0717}
{"sequence": "ATATTGAG", "PBM E-score": 0.108}
{"sequence": "CTCCCTGA", "PBM E-score": -0.0927}
{"sequence": "CAACTAGG", "PBM E-score": -0.139}
{"sequence": "ATACATCC", "PBM E-score": -0.0557}
{"sequence": "CAATTTCC", "PBM E-score": -0.0578}
{"sequence": "GATGCAGC", "PBM E-score": -0.00181}
{"sequence": "AGGCCGAT", "PBM E-score": -0.136}
{"sequence": "AACTTCCA", "PBM E-score": 0.0644}
{"sequence": "AATCCATT", "PBM E-score": 0.137}
{"sequence": "AGCGCTGG", "PBM E-score": -0.113}
{"sequence": "CATTTTTC", "PBM E-score": 0.189}
{"sequence": "TCACCACA", "PBM E-score": -0.105}
{"sequence": "ATTACAAA", "PBM E-score": 0.165}
{"sequence": "CAGGTATC", "PBM E-score": -0.149}
{"sequence": "AACAATAC", "PBM E-score": 0.0824}
{"sequence": "ATGTATTG", "PBM E-score": 0.128}
{"sequence": "AATTCCTG", "PBM E-score": 0.0287}
{"sequence": "GTGCGTAA", "PBM E-score": -0.00441}
{"sequence": "ACAAGAGC", "PBM E-score": 0.0293}
{"sequence": "CAGACAGC", "PBM E-score": -0.025}
{"sequence": "GTCTCATA", "PBM E-score": 0.212}
{"sequence": "CTTCGCAC", "PBM E-score": -0.0981}
{"sequence": "TGGAACAA", "PBM E-score": 0.176}
{"sequence": "AATGCGCA", "PBM E-score": 0.134}
{"sequence": "AGTTACGG", "PBM E-score": 0.00823}
{"sequence": "GCCGTAAC", "PBM E-score": 0.0092}
{"sequence": "CTGTTAAA", "PBM E-score": -0.0651}
{"sequence": "CGCTGCAC", "PBM E-score": -0.108}
{"sequence": "ACTAATAC", "PBM E-score": 0.131}
{"sequence": "CCATGTAC", "PBM E-score": 0.0115}
{"sequence": "CGGCCTTC", "PBM E-score": -0.0176}
{"sequence": "GGTTTGTA", "PBM E-score": 0.029}
{"sequence": "AAATCGAG", "PBM E-score": 0.131}
{"sequence": "ACCAGGGG", "PBM E-score": -0.141}
{"sequence": "ATACGAAA", "PBM E-score": 0.215}
{"sequence": "CCGCCCGA", "PBM E-score": 0.111}
{"sequence": "AAATCCGC", "PBM E-score": -0.131}
{"sequence": "CGGCACAA", "PBM E-score": -0.0626}
{"sequence": "AGATGTTC", "PBM E-score": -0.217}
{"sequence": "ACAATTCG", "PBM E-score": 0.152}
{"sequence": "GACCCACA", "PBM E-score": 0.0411}
{"sequence": "AAGTCTTC", "PBM E-score": -0.0652}
{"sequence": "AAATACGC", "PBM E-score": 0.162}
{"sequence": "ATTCAGCG", "PBM E-score": -0.033}
{"sequence": "AGACCCTA", "PBM E-score": -0.188}
{"sequence": "CAAGCCAC", "PBM E-score": -0.147}
{"sequence": "AGCTCGAA", "PBM E-score": 0.132}
{"sequence": "CAATGGCG", "PBM E-score": -0.133}
{"sequence": "TCGAGGCA", "PBM E-score": -0.0607}
{"sequence": "GTGCCGCA", "PBM E-score": -0.0284}
{"sequence": "TCATTCCA", "PBM E-score": -0.0298}
{"sequence": "AAGTATAA", "PBM E-score": 0.14}
{"sequence": "TCGAATCA", "PBM E-score": 0.0236}
{"sequence": "GCCCACAA", "PBM E-score": -0.0907}
{"sequence": "ACGGCACC", "PBM E-score": -0.115}
{"sequence": "ACTCCTTA", "PBM E-score": -0.0459}
{"sequence": "CATTCCTA", "PBM E-score": 0.00051}
{"sequence": "AATACTGC", "PBM E-score": -0.103}
{"sequence": "CAGCCGGA", "PBM E-score": 0.138}
{"sequence": "CGTAGGGC", "PBM E-score": -0.168}
{"sequence": "AATTGACA", "PBM E-score": 0.157}
{"sequence": "AGCCTAGA", "PBM E-score": -0.191}
{"sequence": "CAGCGGTA", "PBM E-score": 0.0564}
{"sequence": "CATAGAAG", "PBM E-score": -0.00407}
{"sequence": "ACGCCGCA", "PBM E-score": 0.0482}
{"sequence": "TCCCTCCA", "PBM E-score": -0.191}
{"sequence": "CAGTTACC", "PBM E-score": -0.128}
{"sequence": "GATAAATC", "PBM E-score": -0.0398}
{"sequence": "ACGGGACT", "PBM E-score": -0.209}
{"sequence": "AACTAACC", "PBM E-score": 0.233}
{"sequence": "ATTGTCAA", "PBM E-score": 0.118}
{"sequence": "ACCTAAGT", "PBM E-score": 0.0247}
{"sequence": "CGAGAGCC", "PBM E-score": -0.209}
{"sequence": "GAAATGGC", "PBM E-score": -0.0959}
{"sequence": "AAAAGCGC", "PBM E-score": 0.119}
{"sequence": "CAAGCACG", "PBM E-score": -0.128}
{"sequence": "AACCCCAT", "PBM E-score": 0.205}
{"sequence": "GCGGCGTA", "PBM E-score": 0.151}
{"sequence": "AACCCCAC", "PBM E-score": -0.12}
{"sequence": "GACTCCCC", "PBM E-score": -0.26}
